{"source": "PubChem BioAssay AID1460", "about": "(National Center for Advancing Translational Sciences (NCATS), 2008)", "note": "In all, about 270,000 compounds went through this assay and about 5,800 (2.1%) were called active. The shares of active, inactive and inconclusive entries below differ from those in the screen. Calls come from the whole dose curve; as a rule, active = well fitted inhibition curve with a large enough effect; inconclusive = small, poorly fitted or top-dose-only effect; inactive = flat fitted curve, though single readings scatter. Potencies of inconclusive entries are doubtful fits and often do not repeat. % is set by controls: 0 for no effect and ±100 for the full control effect; potency is the fitted concentration of half-maximal effect; tags give direction and shape of the fitted curve."}
{"target": "Microtubule-associated protein tau (Homo sapiens) (UniProt P10636)", "sequence (P10636 whole entry, looked up, the tested form may be a part)": "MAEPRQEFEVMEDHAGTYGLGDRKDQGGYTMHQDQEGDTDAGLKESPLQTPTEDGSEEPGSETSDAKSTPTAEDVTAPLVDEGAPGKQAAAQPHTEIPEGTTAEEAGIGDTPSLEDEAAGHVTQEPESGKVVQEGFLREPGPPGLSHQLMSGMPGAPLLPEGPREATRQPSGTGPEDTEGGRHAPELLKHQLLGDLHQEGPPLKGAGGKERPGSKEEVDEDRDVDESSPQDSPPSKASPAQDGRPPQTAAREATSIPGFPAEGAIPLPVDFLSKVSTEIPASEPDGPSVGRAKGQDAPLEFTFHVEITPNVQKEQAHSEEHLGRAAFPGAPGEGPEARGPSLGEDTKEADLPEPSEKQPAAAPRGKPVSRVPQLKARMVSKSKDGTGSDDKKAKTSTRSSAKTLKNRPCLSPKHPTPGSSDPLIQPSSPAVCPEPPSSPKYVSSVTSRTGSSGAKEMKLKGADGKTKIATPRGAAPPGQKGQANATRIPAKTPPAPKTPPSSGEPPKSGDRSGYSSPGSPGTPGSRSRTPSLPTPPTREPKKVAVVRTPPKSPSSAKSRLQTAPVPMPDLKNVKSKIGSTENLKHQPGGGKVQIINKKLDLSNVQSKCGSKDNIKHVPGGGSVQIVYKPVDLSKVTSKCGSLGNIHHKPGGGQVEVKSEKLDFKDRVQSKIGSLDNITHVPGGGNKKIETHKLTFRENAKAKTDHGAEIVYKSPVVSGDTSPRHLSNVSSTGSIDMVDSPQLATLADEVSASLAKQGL", "assay": "qHTS for Inhibitors of Tau Fibril Formation, Thioflavin T Binding; note: nearly all actives have a fitted effect of over 55% in size", "conditions": "recombinant tau K18 P301L (four-repeat tau fragment), heparin-induced fibrillization, ThT fluorescence; series mostly up to 57.4 µM; activity, negative = inhibition: at the top concentration", "how_it_was_run": "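Aggregation was driven by heparin (20 uM final) acting on recombinant tau […] bearing P301L in 100 mM sodium acetate pH 7; fibrils were detected with Thioflavin T.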"}
{"smiles": "c1ccc(NC2=Nc3cccc4cccc2c34)cc1", "Potency": "inconclusive: 28.2 µM [inhibitor, partial curve]"}
{"smiles": "CCc1ccc2nc(Nc3ccc(OC)cc3OC)c(C#N)cc2c1", "Potency": "inconclusive: 8.91 µM [inhibitor, partial curve]"}
{"smiles": "CSc1ccc(/C=N/N2CCN(Cc3ccc(Cl)cc3)CC2)cc1", "Potency": "inconclusive: 12.6 µM [inhibitor, partial curve]"}
{"smiles": "Cc1n[nH]c(C)c1C(=O)CC1(O)C(=O)N(CCc2ccccc2)c2ccc(Cl)cc21", "note": "(centres undefined)", "Potency": "inconclusive: 39.8 µM [inhibitor, single point]"}
{"smiles": "CC1CCC2(C(=O)O)CCC3(C)C(=CCC4C3(C)CCC3[C@@]4(C)CC(O)C(O)[C@@]3(C)CO)C2C1C", "note": "(some centres undefined)", "activity, negative = inhibition": "inactive: 3.35%"}
{"smiles": "COc1ccc2nc(NC(=O)Nc3ccccc3)sc2c1", "Potency": "inconclusive: 7.94 µM [activator, partial curve]"}
{"smiles": "C/C(=N/NC(=O)c1ccccc1)C(=O)O", "Potency": "inconclusive: 15.8 µM [inhibitor, partial curve]"}
{"smiles": "COc1cc(OC)c(NC(=O)C2CCN(C(=O)c3sc4nc[nH]c(=O)c4c3C)CC2)cc1Cl", "Potency": "inconclusive: 17.8 µM [inhibitor, single point]"}
{"smiles": "CCC(=O)N1CCc2cc(Br)cc(S(=O)(=O)N3CCC(C(=O)Nc4ccccc4CC)CC3)c21", "activity, negative = inhibition": "inactive: -4.8%"}
{"smiles": "Cc1ccc(-c2nc3cc(Cl)ccc3o2)cc1NC(=O)c1cc([N+](=O)[O-])ccc1N1CCOCC1", "activity, negative = inhibition": "inactive: -17.9%"}
{"smiles": "NC(=S)Nc1nc2ccccc2[nH]c1=O", "Potency": "inconclusive: 15.8 µM [inhibitor, partial curve]"}
{"smiles": "NNc1cc(C(=O)O)ccc1Cl", "Potency": "inconclusive: 11.2 µM [inhibitor, partial curve]"}
{"smiles": "CCN(CC)C(=O)CSc1nc2c(sc(=S)n2-c2ccccc2)c(=O)n1Cc1ccco1", "Potency": "inconclusive: 25.1 µM [inhibitor, partial curve]"}
{"smiles": "Cc1cc(/C=N/NC(=O)c2ccc(O)cc2)c(C)n1C1CC1", "Potency": "inconclusive: 20 µM [inhibitor, single point]"}
{"smiles": "CC(=O)Nc1ccc2ccccc2c1", "activity, negative = inhibition": "inactive: -5.23%"}
{"smiles": "CCCCN1C(=O)c2[nH]nc(-c3ccccc3O)c2C1c1ccc(C(C)(C)C)cc1", "note": "(centres undefined)", "Potency": "inconclusive: 3.55 µM [inhibitor, full curve]"}
{"smiles": "CCCOc1ccc(/C=N/Nc2ccccc2[N+](=O)[O-])c(O)c1", "Potency": "inconclusive: 1 µM [inhibitor, partial curve]"}
{"smiles": "CCC1Oc2ccc(C)cc2N(CC(=O)NCc2ccc(OC)cc2)C1=O", "note": "(centres undefined)", "activity, negative = inhibition": "inactive: -7.07%"}
{"smiles": "CCN1CCN(C(=S)Nc2ccc3nc(N4CCN(C)CC4)cc(C)c3c2)CC1", "Potency": "inconclusive: 56.2 µM [inhibitor, single point]"}
{"smiles": "N#CC(c1ccncc1)(c1ncc(C(F)(F)F)cc1Cl)N1CCOCC1", "note": "(centres undefined)", "Potency": "inconclusive: 25.1 µM [inhibitor, partial curve]"}
{"smiles": "Cc1ccc(-c2nc(C=Nc3ccc(O)cc3)c(O)o2)cc1", "Potency": "inconclusive: 2.82 µM [inhibitor, full curve]"}
{"smiles": "COc1ccc(/C=C2/C(=O)N=C(N)N2C)cc1OC", "Potency": "inconclusive: 25.1 µM [inhibitor, partial curve]"}
{"smiles": "O=[N+]([O-])c1cccnc1N/N=C/c1ccccc1O", "Potency": "inconclusive: 17.8 µM [inhibitor, partial curve]"}
{"smiles": "CC(=O)c1ccc(NC(=O)CSc2ccc(-c3cccs3)nn2)cc1", "Potency": "inconclusive: 0.282 µM [inhibitor, full curve]"}
{"smiles": "Cc1ccccc1NC(=O)c1ccc([N+](=O)[O-])o1", "activity, negative = inhibition": "inactive: -5.79%"}
{"smiles": "CCOc1ccc(-c2nc(SCC(=O)c3ccccc3)n[nH]2)cc1", "activity, negative = inhibition": "inactive: -4.87%"}
{"smiles": "CCC(=O)Nc1cccc(C(=O)/C=C/c2ccccc2)c1", "Potency": "inconclusive: 14.1 µM [inhibitor, partial curve]"}
{"smiles": "COC(=O)c1ccc(N)c(N=CC2=C(O)CC(C)(C)CC2=O)c1", "activity, negative = inhibition": "inactive: -14.8%"}
{"smiles": "Cc1nn(-c2ccccc2Cl)c(Cl)c1/C=N/Nc1cccc(C(=O)O)c1", "Potency": "inconclusive: 25.1 µM [inhibitor, partial curve]"}
{"smiles": "N#CC(=C=[N-])c1nc2ccccc2nc1-[n+]1cccc(NC(=O)c2cccs2)c1", "Potency": "inconclusive: 2 µM [inhibitor, full curve]"}
{"smiles": "O=C(c1ccc(Br)cc1)N1CCN(CCc2ccncc2)CC1", "activity, negative = inhibition": "inactive: 6.1%"}
{"smiles": "COc1ccc(C(=O)N/N=C(\\C)CC(=O)N2CCN(C=O)CC2)cc1", "Potency": "inconclusive: 35.5 µM [inhibitor, single point]"}
{"smiles": "CC(=O)/C(=C/c1ccccc1)C(=O)Nc1ccccc1C", "Potency": "inconclusive: 10 µM [inhibitor, partial curve]"}
{"smiles": "Cn1nc(-c2ccccc2F)c2cc(C(=O)NCCc3ccc(Cl)cc3)sc21", "activity, negative = inhibition": "inactive: -6.48%"}
{"smiles": "CCOC(=O)C1CCN(C(c2cccc(F)c2)c2c(O)cc(C)n(Cc3ccco3)c2=O)CC1", "note": "(centres undefined)", "Potency": "inconclusive: 7.08 µM [inhibitor, full curve]"}
{"smiles": "Cc1[nH]n(C)c(=O)c1C(=O)c1c(-c2ccccc2Cl)noc1C", "Potency": "inconclusive: 28.2 µM [inhibitor, partial curve]"}
{"smiles": "Nc1nc(-c2ccco2)nn1C(=O)c1cccnc1", "Potency": "inconclusive: 28.2 µM [inhibitor, single point]"}
{"smiles": "O=C(NN1C(=O)/C(=C\\c2cccnc2)SC1=S)C(c1ccccc1)c1ccccc1", "Potency": "inconclusive: 31.6 µM [inhibitor, single point]"}
{"smiles": "CC(=O)CCc1ccc(Oc2nc(-c3cccnc3)nc3ccccc23)cc1", "Potency": "inconclusive: 25.1 µM [inhibitor, single point]"}
{"smiles": "Cc1cccc(Nc2nnc(-c3ccc(C)c(S(=O)(=O)NCC4CCCO4)c3)c3ccccc23)c1", "note": "(centres undefined)", "activity, negative = inhibition": "inactive: -9.66%"}
{"smiles": "COc1ccc(NS(=O)(=O)c2cccc(C(=O)N/N=C/c3cn(-c4ccccc4)nc3-c3ccc(OC)cc3)c2)cc1", "Potency": "inconclusive: 39.8 µM [inhibitor, single point]"}
{"smiles": "CCOC(=O)c1ccc(N2C(=O)c3n[nH]c(-c4ccco4)c3C2c2ccc(O)c(OCC)c2)cc1", "note": "(centres undefined)", "Potency": "inconclusive: 7.94 µM [inhibitor, full curve]"}
{"smiles": "Cc1nc(N)sc1N=Nc1ccc(F)cc1", "Potency": "active: 8.91 µM"}
{"smiles": "Oc1ccc(N=Nc2ccc3c(c2)OCCO3)c2cccnc12", "Potency": "active: 2 µM"}
